Among all 39,000 compounds or so, about 220 (0.56%) showed activity. Some of the results follow.
Tested on: Escherichia coli K-12 BW25113
Test: relative growth (OD600 normalised to plate interquartile mean) (fraction); higher = less growth inhibition, active = 0.2 or less
Conditions: 50 µM; LB; incubation time: overnight (16-24 h)
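Further: static incubation at 37 °C against the wild-type strain, values averaged over two biological replicates.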

SMILES | relative growth
CCNC(=O)C[C@@H]1CC[C@H](NC(=O)C2CC2)[C@@H](CO)O1 | inactive: 1
NC(=O)C1N=CN([C@@H]2O[C@H](CO)[C@@H](O)[C@H]2O)C1=O (some centres not stated) | inactive: 1.02
C[C@H]1CN([C@@H](C)CO)C(=O)c2cc(NS(=O)(=O)c3ccc(F)cc3)ccc2O[C@H]1CN(C)C(=O)Nc1cccc2ccccc12 | inactive: 1
C[C@@H]1CCCCO[C@@H](CN(C)C(=O)c2ccccc2)[C@H](C)CN([C@@H](C)CO)C(=O)c2cc(NS(=O)(=O)c3ccc(Cl)cc3)ccc2O1 | inactive: 1.04
C[C@@H]1CCCCO[C@@H](CN(C)C(=O)NC2CCCCC2)[C@@H](C)CN([C@H](C)CO)C(=O)c2cc(NC(=O)c3ccccc3)ccc2O1 | inactive: 1.02
C[C@@H]1CCCCO[C@H](CN(C)C(=O)Nc2ccccc2)[C@H](C)CN([C@@H](C)CO)C(=O)c2cc(NC(=O)c3ccccc3)ccc2O1 | inactive: 0.982
C[C@@H]1CN([C@@H](C)CO)C(=O)c2cc(NS(=O)(=O)c3ccc(F)cc3)ccc2O[C@@H](C)CCCCO[C@H]1CN(C)C(=O)Nc1cccc2ccccc12 | inactive: 1.06
CC(C)NC(=O)N(C)C[C@H]1Oc2c(NS(=O)(=O)c3cccs3)cccc2C(=O)N([C@@H](C)CO)C[C@H]1C | inactive: 1.01
CO[C@H](CN(C)S(=O)(=O)c1cccc(Cl)c1)[C@H](C)CN([C@@H](C)CO)S(=O)(=O)c1cccc(Cl)c1 | inactive: 1.01
CC(C)N1C(=O)NC(=O)[C@@H]1CC(=O)O | inactive: 1.02
O=C1O[C@H](c2ccccc2)[C@H](c2ccccc2)N2[C@H]1[C@@H](C(=O)N1CCCCCCC1)[C@]1(C(=O)Nc3ccc(C#CCCO)cc31)[C@H]2c1ccc(OCCO)cc1 | inactive: 1.05
OC[C@@H]1O[C@H](O)[C@H](O)[C@H](O[C@@H]2O[C@H](CO)[C@H](O)[C@H](O[C@@H]3O[C@H](CO)[C@@H](O)[C@H](O)[C@@H]3O)[C@H]2O)[C@H]1O | inactive: 1
C[C@@H]1CCCCO[C@@H](CN(C)C(=O)C2CCCCC2)[C@H](C)CN([C@H](C)CO)C(=O)c2cc(NC(=O)Cc3ccccc3)ccc2O1 | inactive: 0.991
C[C@H]1CN([C@@H](C)CO)C(=O)c2cccc(NC(=O)C3CCOCC3)c2O[C@@H]1CN(C)Cc1ccccc1 | inactive: 0.989
CN1CCCN=C1C=Cc1cccs1.O=C(O)c1cc2ccccc2c(Cc2c(O)c(C(=O)O)cc3ccccc23)c1O | inactive: 1.13
COc1ccc(S(=O)(=O)Nc2ccc3c(c2)CC(=O)N([C@@H](C)CO)C[C@@H](C)[C@H](CN(C)Cc2ccc(Cl)c(Cl)c2)O3)cc1 | inactive: 0.944
CC(C)(C)S(=O)N1Cc2cc(C(=O)N3CCN(Cc4ccccc4)CC3)nc(-c3cccc(C#CCC4CCCC4)c3)c2[C@H]1CCO (some centres not stated) | inactive: 0.997
CCCC(=O)N1CC[C@]2(CC1)CN([C@H](CO)c1c2c2ccc(cc2n1C)OC)C(=O)CN1CCOCC1 | inactive: 1
COc1cc(O)c(C(C)=O)c(OC)c1 | inactive: 1.05

SMILES | relative growth
C#CCN(C)CCCOc1ccc(Cl)cc1Cl.Cl | inactive: 0.97
Cc1noc(C)c1S(=O)(=O)Nc1ccc2c(c1)C(=O)N([C@@H](C)CO)C[C@@H](C)[C@@H](CN(C)S(=O)(=O)c1ccc(Cl)cc1)O2 | inactive: 1.02
C[C@H](CO)N1C[C@H](C)[C@H](CN(C)C(=O)Nc2cccc(Oc3ccccn3)c2)OCc2cn(nn2)CCCC1=O | inactive: 0.985
C[C@@H]1CN([C@@H](C)CO)C(=O)c2cccc(NS(=O)(=O)c3cccs3)c2O[C@@H]1CN(C)S(C)(=O)=O | inactive: 0.975
C[C@H]1CN([C@@H](C)CO)C(=O)c2cc(NS(=O)(=O)c3ccc(F)cc3)ccc2O[C@@H]1CN(C)S(=O)(=O)c1cn(C)cn1 | inactive: 0.98
NC(=O)C[C@H](N)C(=O)O | inactive: 0.95
COc1cc2c(cc1OC)C1C(=O)c3ccc4c(c3OC1CO2)C=CC(C)(C)O4 (configuration not stated) | inactive: 1.02
C[C@@H]1CN([C@H](C)CO)C(=O)c2cc(NC(=O)NC3CCCCC3)ccc2O[C@H]1CN(C)Cc1ccc(C(F)(F)F)cc1 | inactive: 1.02
O=c1c(O)c(-c2ccc(O)c(O)c2)oc2c(O[C@@H]3O[C@H](CO)[C@H](O)[C@@H](O)[C@H]3O)c(O)cc(O)c12 | inactive: 0.987
COc1ccc(CN(C)C[C@@H]2Oc3ccc(NS(C)(=O)=O)cc3CC(=O)N([C@H](C)CO)C[C@@H]2C)cc1 | inactive: 1
COc1ccc(S(=O)(=O)N[C@@H]2CC[C@H](CC(=O)N3CCC(Cc4ccccc4)CC3)O[C@@H]2CO)cc1 | inactive: 0.979
Cc1c2oc3c(C)ccc(C(=O)N[C@@H]4C(=O)N[C@@H](C(C)C)C(=O)N5CCC[C@H]5C(=O)N(C)CC(=O)N(C)[C@@H](C(C)C)C(=O)O[C@@H]4C)c3nc-2c(C(=O)N[C@@H]2C(=O)N[C@@H](C(C)C)C(=O)N3CCC[C@H]3C(=O)N(C)CC(=O)N(C)[C@@H](C(C)C)C(=O)O[C@@H]2C)c(N)c1=O | inactive: 0.954
NCCCC[C@@H]1NC(=O)[C@@H](Cc2c[nH]c3ccccc23)NC(=O)[C@H](c2ccccc2)NC(=O)[C@@H]2C[C@@H](OC(=O)NCCN)CN2C(=O)[C@H](Cc2ccccc2)NC(=O)[C@H](Cc2ccc(OCc3ccccc3)cc2)NC1=O | inactive: 0.893
CN1CCN(C)C1=O | inactive: 1.02
COc1ccccc1CNC(=O)C[C@H]1C[C@H]2c3cc(NC(=O)c4cccnc4)ccc3O[C@H]2[C@@H](CO)O1 | inactive: 0.998
C[C@@H]1CN([C@H](C)CO)C(=O)c2cc(NC(=O)CCCCCC(=O)Nc3ccccc3N)ccc2O[C@H]1CN(C)S(=O)(=O)c1cn(C)cn1 | inactive: 0.998
Cc1noc(C)c1S(=O)(=O)Nc1ccc2c(c1)CC(=O)N([C@@H](C)CO)C[C@H](C)[C@@H](CN(C)S(C)(=O)=O)O2 | inactive: 1.01
C[C@H](CO)N1C[C@H](C)[C@@H](CN(C)S(=O)(=O)c2ccc(Cl)cc2)Oc2ccc(N(C)C)cc2C1=O | inactive: 1
